According to publication PMC4049815:
No constants are given. Whether binding was seen depends on the method and setting. Binding seen in cells or lysates may run through a third protein. Some entries that bind do so weakly or less than the wild type. Sequences can lack the tags named with a protein. One block for each molecule: values may come before it.

Protein sequences, listed by entry. Tags and fused reporters are not part of them.
UniProt O88907: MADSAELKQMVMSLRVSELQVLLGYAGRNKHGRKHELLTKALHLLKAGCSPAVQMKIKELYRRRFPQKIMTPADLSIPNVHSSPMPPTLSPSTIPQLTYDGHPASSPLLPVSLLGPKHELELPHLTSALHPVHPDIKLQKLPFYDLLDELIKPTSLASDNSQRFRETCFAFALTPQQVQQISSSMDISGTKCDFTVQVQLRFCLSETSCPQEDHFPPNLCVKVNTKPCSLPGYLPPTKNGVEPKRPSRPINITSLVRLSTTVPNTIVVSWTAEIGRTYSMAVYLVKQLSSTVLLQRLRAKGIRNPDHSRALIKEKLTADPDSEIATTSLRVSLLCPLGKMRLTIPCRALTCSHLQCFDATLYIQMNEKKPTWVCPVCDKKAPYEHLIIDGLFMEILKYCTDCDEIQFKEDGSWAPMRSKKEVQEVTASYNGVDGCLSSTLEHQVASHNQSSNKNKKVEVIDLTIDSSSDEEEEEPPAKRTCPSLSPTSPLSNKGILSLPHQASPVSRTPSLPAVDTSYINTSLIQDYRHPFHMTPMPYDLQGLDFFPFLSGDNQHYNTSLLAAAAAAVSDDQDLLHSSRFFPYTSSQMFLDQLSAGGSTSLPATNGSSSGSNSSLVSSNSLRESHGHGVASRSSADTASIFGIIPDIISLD

Experiments:
[1] = biological target: T1, FLAG-tagged MAGED1 (mouse) (UniProt Q9QYH6); assay: co-IP; HEK293A cells co-transfected with FLAG-tagged MAGE proteins and Myc-tagged E3 ligases; lysates (10 mM Tris-HCl pH 8.0, 150 mM NaCl, 1 mM EDTA, 1% IGEPAL CA-630, 10% glycerol) precipitated with anti-FLAG antibody at 4°C for 2 hrs, blotted with anti-Myc
T1 sequence: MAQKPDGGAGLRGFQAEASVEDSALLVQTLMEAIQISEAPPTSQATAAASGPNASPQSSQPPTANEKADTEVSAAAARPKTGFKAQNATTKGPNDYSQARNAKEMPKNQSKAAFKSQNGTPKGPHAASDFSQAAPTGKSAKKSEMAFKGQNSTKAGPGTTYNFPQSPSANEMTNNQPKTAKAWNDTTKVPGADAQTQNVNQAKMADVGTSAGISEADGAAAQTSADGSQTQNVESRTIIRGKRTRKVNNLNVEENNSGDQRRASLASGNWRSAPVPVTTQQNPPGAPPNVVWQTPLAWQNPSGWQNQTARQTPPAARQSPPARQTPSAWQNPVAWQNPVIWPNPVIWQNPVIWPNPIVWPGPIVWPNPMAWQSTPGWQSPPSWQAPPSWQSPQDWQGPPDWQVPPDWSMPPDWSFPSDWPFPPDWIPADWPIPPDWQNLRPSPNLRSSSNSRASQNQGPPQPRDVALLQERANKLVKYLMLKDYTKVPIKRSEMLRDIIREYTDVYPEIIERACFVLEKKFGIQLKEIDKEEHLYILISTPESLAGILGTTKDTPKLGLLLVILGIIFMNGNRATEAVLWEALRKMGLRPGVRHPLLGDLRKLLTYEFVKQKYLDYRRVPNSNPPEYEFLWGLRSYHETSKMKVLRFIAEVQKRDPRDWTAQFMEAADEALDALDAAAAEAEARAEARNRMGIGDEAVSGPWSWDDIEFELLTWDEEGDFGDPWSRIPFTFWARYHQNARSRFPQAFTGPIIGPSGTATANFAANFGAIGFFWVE

[2] = biological target: T2, FLAG-tagged necdin aa 101-325 (CT) (mouse) (UniProt P25233); assay: co-IP; HEK293A cells co-transfected with Myc-PIAS1 and FLAG-tagged necdin FL, CT or NT; precipitated proteins analysed with antibodies to Myc and FLAG
T2 sequence: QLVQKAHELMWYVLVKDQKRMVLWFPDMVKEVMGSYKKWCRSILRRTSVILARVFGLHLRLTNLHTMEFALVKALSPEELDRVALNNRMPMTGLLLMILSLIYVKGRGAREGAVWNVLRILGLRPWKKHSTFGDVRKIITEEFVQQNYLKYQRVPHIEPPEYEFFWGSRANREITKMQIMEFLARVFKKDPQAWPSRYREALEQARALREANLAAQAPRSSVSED

[3] = biological target: T3, FLAG-tagged necdin aa 1-100 (NT) (mouse) (UniProt P25233); assay: as above
T3 sequence: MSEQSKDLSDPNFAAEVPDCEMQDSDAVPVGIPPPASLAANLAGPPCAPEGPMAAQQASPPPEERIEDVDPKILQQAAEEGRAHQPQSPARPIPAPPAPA

[4] = biological target: T4, FLAG-tagged necdin (full-length) (mouse) (UniProt P25233); assay: as above
T4 sequence: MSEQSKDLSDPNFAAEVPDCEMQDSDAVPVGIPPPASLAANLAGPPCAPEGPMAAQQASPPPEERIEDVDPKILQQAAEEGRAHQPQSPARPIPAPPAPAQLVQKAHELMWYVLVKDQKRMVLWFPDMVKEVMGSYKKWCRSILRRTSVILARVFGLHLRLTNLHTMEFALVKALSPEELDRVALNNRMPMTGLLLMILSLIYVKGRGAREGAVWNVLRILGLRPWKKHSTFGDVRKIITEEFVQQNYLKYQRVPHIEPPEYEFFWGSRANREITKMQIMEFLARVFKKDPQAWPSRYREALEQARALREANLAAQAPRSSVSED

binding [1]: binds
binding [2]: binds
binding [3]: no binding
binding [4]: binds
Molecule: Myc-tagged PIAS1 (full-length) (from UniProt O88907 1-651) (enzyme)

binding [1]: no binding
B1: Myc-tagged Cbx4 (enzyme, UniProt O55187-1 1-551)
chain: MELPAVGEHVFAVESIEKKRIRKGRVEYLVKWRGWSPKYNTWEPEENILDPRLLIAFQNRERQEQLMGYRKRGPKPKPLVVQVPTFARRSNVLTGLQDSSADNRAKLELGTQGKGQGHQYELNSKKHHQYQPHSKERSGKPPPPGKSGKYYYQLNSKKHHPYQPDPKMYDLQYQGGHKEAPSPTCPDLGTKSHPPDKWAHGAAAKGYLGAVKPLGGGAGAPGKGSEKGPPNGMTPAPKEAVTGNGIGGKMKIVKNKNKNGRIVIVMSKYMENGMQAVKIKSGEAAEGEARSPSHKKRAAEERHPQGDRTFKKAAGASEEKKAEVPCKRREEEALVSGDAQPQDLGSRKLSPTKEAFGEQPLQLTTKPDLLAWDPARSSHPPAHHHHHHHHHHHHHTVGLNLSHARKRCLSETHGEREPCKKRLTARSISTPTCLGGSPVSEHPANVSPTAASLPQPEVILLDSDLDEPIDLRCVKMRSDAGEPPSTLQVKPEAPAVAAVVAPAPASEKPPAEAQEEPVEPLSEFKPFFGNIIITDVTANCLTVTFKEYVTV

binding [1]: no binding
B2: Myc-tagged Nsmce2 (enzyme, UniProt Q91VT1-1 1-247)
chain: MPGRSSTSSGSTRYISFSGIESALSSLKNFQSCISSGMDTVSSVALDLVETQTEVSSEYSMDKAMVEFAKMDRELSHYVKAVQSTINHVKEERPEKVPDLKLLVEKKFLALQDKNSDADFKENEKFVQFKQQLRELKKQYGIHADRENDLTEGVDEDMIVTQSQTNFICPITQLEMKKPVKNKMCGHTYEEEAIVRMIESKHKRKKKACCPKIGCSHTDMRMSDLIPDEALRRAIESHNKKKKRHSE

binding [1]: no binding
B3: Myc-tagged Nsmce1 (enzyme, UniProt Q9D720 1-266)
chain: MQGSTRRAGAMTDVHRRFLQLLMTHGVLEEWEVRRLQNHCYQVHDRNATVDKLEDFINNINSVLESLYIEIKKGVTEDDGRPIYALVNLATTSVSKMATDFAENELDLFRKALELIVDSETGFASSTNILNLVDQLKGKKMRKKEAEQVLQKFVQSKWLIEKEGEFTLHGRAILEMEQFIRESYPDSVKMCNICHGLLIQGQSCETCGIRMHLPCVAKYFQSIPEPHCPHCNDYWPHDIPEVYNPEKEREAGISKSSRKSLRTRQH
